We go through 71 compounds from PubChem BioAssay AID488969 (Vanderbilt High Throughput Screening Facility, 2010).

Several values for one entry are separate records, joined by “and”; a condition that tells them apart may be missing. Equal entries are not always repeated. Whole data set: some 110,000 compounds, median “z-score” near -0.1, cut for the highest 2% near 2. The list shows a part of the results.

For this experiment, the target named is Metabotropic glutamate receptor 8 (Rattus norvegicus) (UniProt P70579). The experiment is described as follows: mGluR8 Gi/Go-coupled signaling modulation – cell-based, rat, thallium flux, HTS, primary screen (AID 488969). Particulars: HEK293 rat mGluR8, GIRK (G protein-gated inwardly rectifying potassium channel) thallium flux, FluoZin2; at 10 µM; stronger effect = higher value; submaximal glutamate (EC20) added with thallium.
UniProt P70579, sequence (P70579 whole entry, looked up): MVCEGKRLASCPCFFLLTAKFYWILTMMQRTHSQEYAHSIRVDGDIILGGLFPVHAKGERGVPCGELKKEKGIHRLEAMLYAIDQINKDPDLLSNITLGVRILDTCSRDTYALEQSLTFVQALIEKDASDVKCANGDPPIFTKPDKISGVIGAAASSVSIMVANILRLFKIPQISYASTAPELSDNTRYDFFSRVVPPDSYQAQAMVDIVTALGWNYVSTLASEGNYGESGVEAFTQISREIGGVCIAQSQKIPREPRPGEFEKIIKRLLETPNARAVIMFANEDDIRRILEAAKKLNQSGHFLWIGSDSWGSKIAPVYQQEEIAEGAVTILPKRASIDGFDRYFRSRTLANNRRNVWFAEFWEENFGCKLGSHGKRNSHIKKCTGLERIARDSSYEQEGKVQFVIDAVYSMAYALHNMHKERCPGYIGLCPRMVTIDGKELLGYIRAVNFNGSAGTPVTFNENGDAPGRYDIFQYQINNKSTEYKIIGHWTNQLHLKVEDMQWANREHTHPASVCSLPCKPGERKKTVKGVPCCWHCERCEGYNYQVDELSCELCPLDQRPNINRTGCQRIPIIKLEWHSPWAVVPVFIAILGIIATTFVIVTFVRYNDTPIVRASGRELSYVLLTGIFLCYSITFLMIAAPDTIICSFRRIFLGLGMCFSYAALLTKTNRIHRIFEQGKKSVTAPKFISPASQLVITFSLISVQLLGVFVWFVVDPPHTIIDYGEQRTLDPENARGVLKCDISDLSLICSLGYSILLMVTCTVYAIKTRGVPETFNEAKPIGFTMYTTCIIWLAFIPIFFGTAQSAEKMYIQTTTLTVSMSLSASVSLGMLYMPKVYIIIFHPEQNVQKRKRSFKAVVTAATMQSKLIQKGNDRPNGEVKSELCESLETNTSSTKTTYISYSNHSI
The compound `COc1ccc(-c2noc(CSc3nnc(-c4ccccc4)n3C)n2)cc1` came in with a z-score of -0.535.
The result for `N/C(=N\OC(=O)Oc1ccccc1)c1ccc(Cl)cc1` reads 0.0329; that for `CCNc1nc(CN2CCOCC2)nc2sc3c(c12)CCC3`, -0.8; that for `O=C(c1sc2ccccc2c1Cl)N(Cc1ccccc1)C1CCS(=O)(=O)C1` (stereo unspecified), 1.16.
In the case of `Cc1cn(C2OC(COC(=O)c3ccccc3)C(O)C2O)c(=O)[nH]c1=O` (stereo unspecified), the z-score worked out at 0.18.
With `Cc1ccc(/C=N/NC(=O)c2ccc(Br)o2)s1` the figure was 1.2; with `Cc1ccc(NC(=O)c2ccc(NS(=O)(=O)c3c(C)noc3C)cc2)cc1C`, 1.03.
In the case of `O=C(CSc1nnc(-c2cccnc2)n1CCc1ccccc1)N1CCCCC1`, the z-score is -0.33.
`CC(C)C(c1nnnn1C1CCCCC1)N1CCc2ccccc21` (stereo unspecified) returned a z-score of -0.312.
Regarding `COc1ccc(Nc2cc(C(=O)NCCCN3CCN(C)CC3)c3ccccc3n2)cc1`, the z-score is 0.531.
The result for `O=C(CCSCCC(=O)NCc1ccc(F)cc1)NCc1ccc(F)cc1` reads -0.471; that for `O=S(=O)(NCc1ccccc1)c1cnc[nH]1`, 0.23.
The result for `CCN(CC)C(=O)COc1ccc(CC(=O)O)cc1OC` reads -0.345; that for `Oc1ccc(C(=S)N2CCCCC2)cc1Cl`, -0.0261; that for `Cc1cc(C)n2nc(SCc3nnc(SCCCCl)o3)nc2n1`, -0.157.
With `Cc1ccsc1C(C(=O)NC1CCCCC1)N(C(=O)Cc1cccs1)C1CC1` (stereo unspecified), the z-score is -0.616.
The result for `O=C(c1ccc2c(=O)n(Cc3ccco3)c(=S)[nH]c2c1)N1CCN(Cc2ccccc2)CC1` reads 0.611; that for `C=CCN1C(=O)C(CC(=O)O)SC1=Nc1c(C)n(C)n(-c2ccccc2)c1=O` (stereo unspecified), 0.0505; that for `Nc1nnc(Cc2ccc(Cl)cc2)s1`, 0.16.
With `CC(C)CC(=O)NCCCN1CCN(CCCNC(=O)CC(C)C)CC1` the figure was -0.447.
With `N#CC1=C(SCC(=O)Nc2ccccc2)NC(=O)CC1c1ccc(O)cc1` (stereo unspecified) the figure was -0.397.
`CSCc1c(C(=O)Nc2ccc(N3CCOCC3)cc2)oc2ccccc12` yielded a z-score of -0.222.
In turn, `COc1ccc2cnn(-c3ccccc3)c(=O)c2c1OC` displayed a z-score of -0.29.
`Cc1nc2ncnn2c(C)c1CCC(=O)N1CCCCC1` had a z-score of -0.091.
Turning to `Cc1ccc(-n2nnc3c(=O)n(CC(=O)c4ccccc4)cnc32)cc1`, the z-score was -0.154.
The result for `O=C(O)CSc1cccc2cccnc12` reads -0.347 and 0.372.
The result for `COCc1nnc(NC(=O)c2ccc(NC(C)=O)cc2)s1` reads -0.204; that for `Cc1ccc(S(=O)(=O)NNC(=O)CCC(=O)Nc2ccccc2)cc1`, -0.0614.
The compound `Cc1cccc(NC(=S)NNC(=O)c2ccccc2OC(F)F)c1` gave a z-score of 0.375.
`Cc1cc(Cl)ccc1Oc1ccc(C(N)=O)cc1[N+](=O)[O-]` registered a z-score of 1.77.
With `Clc1ccc(OCc2nnc(SCc3nnc(-c4ccccc4)o3)o2)c(Cl)c1` the figure was 0.506; with `Cc1occc1C(=O)Nc1cccc2ccccc12`, -0.0476; with `COc1ccccc1C(=O)N1CCN(CCc2ccccc2)CC1`, 0.953.
With `Cc1ccc(NC(=O)N(CCCN2CCOCC2)Cc2cc3cc4c(cc3[nH]c2=O)OCO4)cc1` the figure was -1.12.
With `CCOc1ccc(N2C(=O)CC(N(O)c3ccccc3)C2=O)cc1` (stereo unspecified) the figure was -0.458.
For the compound `Cc1ccc2c(COn3nnc4ccc(S(=O)(=O)N(C)C)cc43)cc(=O)oc2c1C`, the z-score was -0.158.
With `CN=C1S/C(=C\c2ccc(N3CCOCC3)c(F)c2)C(=O)N1C` the figure was -0.309; with `CS(=O)(=O)N1CCN(c2ccc(NC(=O)c3cccnc3Cl)cc2)CC1`, 0.393.
The compound `CN(CCCNC(=O)C1CCC(=O)N1Cc1ccc(F)cc1)c1ccccc1` (stereo unspecified) came in with a z-score of 0.152.
With `CN(Cc1cn(C)c2ccccc12)C(=S)Nc1cc(F)cc(F)c1` the figure was -0.166.
Compound `Cc1ccc(NC(=O)CSc2nnc(-c3cccs3)n2Cc2ccco2)cc1` showed a z-score of -0.426.
With `Cc1cc(NC(=O)CN2CCN(c3ncccn3)CC2)no1` the figure was -0.518.
With `CCOn1c(-n2nc(C)cc2C)nc2ccccc2c1=O` the figure was 0.0226; with `Cc1ccc(N2CC(C(=O)Nc3ccccc3C(=O)NC3CCCCC3)CC2=O)cc1` (stereo unspecified), 0.0674; with `COc1ccc(/C=C2\C(=O)N(c3c(Cl)cc(Cl)cc3Cl)N=C2NC(=O)c2cccc([N+](=O)[O-])c2)cc1`, -0.0535.
The compound `O=C(NCc1ccc(F)cc1)C(c1ccccc1)N(CC1CCCO1)C(=O)Cn1nnc2ccccc21` (stereo unspecified) registered a z-score of -0.209.
The result for `Cc1cccc(S(=O)(=O)Nc2ccc(-c3nc4ccc(C)cc4s3)cc2)c1` reads -0.124; that for `O=C(COc1cccc2ccccc12)N1c2ccccc2CCc2ccccc21`, -0.388.
Regarding `COCc1nnc(SCC(=O)NC(C)c2ccccc2)n1-c1ccccc1` (stereo unspecified), the z-score is -0.0891.
For `COCCCNC(CC(=O)Nc1ccc(OC)cc1OC)C(=O)O` (stereo unspecified), the z-score is -0.539.
`CCC1CCCCN1CC(=O)c1c(C)[nH]c2ccccc12` (stereo unspecified) yielded a z-score of -0.699.
Regarding `COc1ccc(C=NCCCN2CCOCC2)cc1`, the z-score is -0.291.
`Cc1cc(C)cc(OCC(=O)NNC(=O)CCN2C(=O)c3ccccc3C2=O)c1` showed a z-score of 0.453.
In turn, `CCOC(=O)C1CC=C(Cl)CC1C(=O)Nc1nccs1` (stereo unspecified) displayed a z-score of -0.559.
With `O=C(CSc1nnc(-c2ccc3c(c2)OCCO3)o1)NC1CCCCC1` the figure was 0.359; with `Cc1cccc(OCCSc2nnc(-c3ccoc3C)n2C)c1`, 0.76.
The compound `O=C(NC1(C(F)(F)F)C(=O)Nc2c1c(=O)[nH]c(=O)n2-c1ccccc1)c1ccncc1` (stereo unspecified) came in with a z-score of -0.25.
The result for `COc1ccc(Cl)c(NC(=O)NCCN2CCN(c3ccccc3)CC2)c1` reads -0.297.
The result for `Cc1[nH]n2c(=O)c3c(nc2c1-c1cccc2ccccc12)CCC3` reads -0.799.
The result for `COc1ccc(Sc2nnc(-c3ccccc3)cc2C#N)cc1` reads 0.0597; that for `COc1cccc(NC(=O)C2CCN(S(C)(=O)=O)CC2)c1`, -0.527.
`CC(C)N(C(=O)CSc1nnc(NC(=O)c2cccs2)s1)C(C)C`: the z-score is 1.02.
`Cc1ccc(C(=O)NCC(=O)OCC(=O)c2ccc(C)c([N+](=O)[O-])c2)cc1` displayed a z-score of -0.163.
With `COCC(=O)NNS(=O)(=O)c1ccccc1[N+](=O)[O-]` the figure was 0.0257.
In turn, `Cc1ccc2oc(-c3ccc(C)c(NC(=S)NC(=O)c4cccs4)c3)nc2c1` gave a z-score of 0.703.
Regarding `Cc1ccc(/C(O)=C2/C(=O)C(=O)OC2c2ccc(Cl)cc2)cc1` (stereo unspecified), the z-score is -0.593.
With `CCOc1ccc(NC(=O)NCC2CCN(c3ccc(OC)cc3)C2)cc1` (stereo unspecified) the figure was 0.627; with `CC(=O)c1nn(-c2ccc(Br)cc2)cc1C(=O)c1ccccc1`, -0.317; with `Cc1ccc(/C=C/C(=O)c2ccccc2)cc1`, 0.0466.
As for `O=[N+]([O-])c1ccc(/C=N/NC(=S)Nc2ccccc2)o1`, the z-score was 2.92.
On to `O=C(NCCCN1CCN(c2ccccc2F)CC1)C1CCCN(S(=O)(=O)c2cnc[nH]2)C1` (stereo unspecified), for which the z-score is 0.548.
